From the supplement of paper PMC8728848
This is one part of the list.

Legend:
Assay in all cases: glycan array binding signal (z-score within array); higher = stronger binding
Details in all cases: glycan notation: IUPAC condensed, linker removed; mutation: Y104F
[1] = biological target: Gal(b1-4)GlcNAc(b1-2)Man(a1-3)[Gal(b1-4)GlcNAc(b1-2)Man(a1-6)]Man(b1-4)GlcNAc(b1-4)GlcNAc
How it was run: (§1)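 Glycan array data were curated from 3228 arrays in the Consortium for Functional Glycomics database and kept only where the protein sequence was available. Glycan names were converted to IUPAC-condensed notation, and columns mapping to the same glycan were averaged. The binding signal is a within-array Z-score, averaged across arrays of the same protein sequence at different concentrations or buffers and across linkers. Negative Z-scores can be read as non-binding.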

[2] = biological target: Gal(b1-4)GlcNAc(b1-2)Man(a1-3)[Gal(b1-4)GlcNAc(b1-2)Man(a1-6)]Man(b1-4)GlcNAc(b1-4)[Fuc(a1-6)]GlcNAc
How it was run: as §1

[3] = biological target: Gal(b1-4)GlcNAc(b1-2)Man(a1-3)[Gal(b1-4)GlcNAc(b1-2)Man(a1-6)][GlcNAc(b1-4)]Man(b1-4)GlcNAc(b1-4)[Fuc(a1-6)]GlcNAc
How it was run: as §1

[4] = biological target: Gal(b1-4)GlcNAc(b1-2)Man(a1-3)[Man(a1-6)]Man(b1-4)GlcNAc(b1-4)GlcNAc
How it was run: as §1

[5] = biological target: Gal(b1-4)GlcNAc(b1-2)Man(a1-6)[GlcNAc(b1-2)Man(a1-3)]Man(b1-4)GlcNAc(b1-4)[Fuc(a1-6)]GlcNAc
How it was run: as §1

[6] = biological target: Gal(b1-4)GlcNAc(b1-2)Man(a1-6)[Man(a1-3)]Man(b1-4)GlcNAc(b1-4)GlcNAc
How it was run: as §1

[7] = biological target: Gal(b1-4)GlcNAc(b1-2)Man(a1-6)[Man(a1-3)]Man(b1-4)GlcNAc(b1-4)[Fuc(a1-6)]GlcNAc
How it was run: as §1

[8] = biological target: Gal(b1-4)GlcNAc(b1-2)[Gal(b1-4)GlcNAc(b1-4)]Man(a1-3)[Fuc(a1-3)[Gal(b1-4)]GlcNAc(b1-2)Man(a1-6)]Man(b1-4)GlcNAc(b1-4)GlcNAc
How it was run: as §1

[9] = biological target: Gal(b1-4)GlcNAc(b1-2)[Gal(b1-4)GlcNAc(b1-4)]Man(a1-3)[Gal(b1-4)GlcNAc(b1-2)[Gal(b1-4)GlcNAc(b1-6)]Man(a1-6)]Man(b1-4)GlcNAc(b1-4)GlcNAc
How it was run: as §1

[10] = biological target: Glc(a1-2)Glc(a1-3)Glc(a1-3)Man(a1-2)Man(a1-2)Man(a1-3)[Man(a1-2)Man(a1-3)[Man(a1-2)Man(a1-6)]Man(a1-6)]Man(b1-4)GlcNAc
How it was run: as §1

[11] = biological target: Glc(a1-2)Glc(a1-3)Glc(a1-3)Man(a1-2)Man(a1-2)Man(a1-3)[Man(a1-3)[Man(a1-6)]Man(a1-6)]Man(b1-4)GlcNAc
How it was run: as §1

[12] = biological target: Glc(a1-3)Glc(a1-3)Man(a1-2)Man(a1-2)Man(a1-3)[Man(a1-2)Man(a1-3)[Man(a1-2)Man(a1-6)]Man(a1-6)]Man(b1-4)GlcNAc(b1-4)GlcNAc
How it was run: as §1

[13] = biological target: Glc(a1-3)Glc(a1-3)Man(a1-2)Man(a1-2)Man(a1-3)[Man(a1-3)[Man(a1-6)]Man(a1-6)]Man(b1-4)GlcNAc
How it was run: as §1

[14] = biological target: Glc(a1-3)Man(a1-2)Man(a1-2)Man(a1-3)[Man(a1-2)Man(a1-3)[Man(a1-2)Man(a1-6)]Man(a1-6)]Man(b1-4)GlcNAc(b1-4)GlcNAc
How it was run: as §1

[15] = biological target: Glc(a1-6)Glc(a1-6)Glc(a1-6)Glc(a1-6)Glc(a1-6)Glc
How it was run: as §1

[16] = biological target: Glc(b1-3)Glc(b1-3)Glc(b1-3)Glc(b1-3)Glc(b1-3)Glc
How it was run: as §1

[17] = biological target: Glc(b1-6)Glc(b1-6)Glc(b1-6)Glc(b1-6)Glc(b1-6)Glc
How it was run: as §1

[18] = biological target: GlcA(b1-3)GlcNAc(b1-4)GlcA(b1-3)GlcNAc(b1-4)GlcA(b1-3)GlcNAc(b1-4)GlcA(b1-3)GlcNAc(b1-4)GlcA(b1-3)GlcNAc(b1-4)GlcA(b1-3)GlcNAc(b1-4)GlcA(b1-3)GlcNAc(b1-4)GlcA(b1-3)GlcNAc
How it was run: as §1

[19] = biological target: GlcNAc(b1-2)Man(a1-3)[GlcNAc(b1-2)Man(a1-6)]Man(b1-4)GlcNAc(b1-4)GlcNAc
How it was run: as §1

[20] = biological target: GlcNAc(b1-2)Man(a1-3)[GlcNAc(b1-2)Man(a1-6)]Man(b1-4)GlcNAc(b1-4)[Fuc(a1-6)]GlcNAc
How it was run: as §1

[21] = biological target: GlcNAc(b1-2)Man(a1-3)[GlcNAc(b1-2)Man(a1-6)][GlcNAc(b1-4)]Man(b1-4)GlcNAc(b1-4)GlcNAc
How it was run: as §1

[22] = biological target: GlcNAc(b1-2)Man(a1-3)[Man(a1-3)[Man(a1-6)]Man(a1-6)][GlcNAc(b1-4)]Man(b1-4)GlcNAc(b1-4)GlcNAc
How it was run: as §1

[23] = biological target: GlcNAc(b1-2)[GlcNAc(b1-4)]Man(a1-3)[GlcNAc(b1-2)Man(a1-6)][GlcNAc(b1-4)]Man(b1-4)GlcNAc(b1-4)GlcNAc
How it was run: as §1

[24] = biological target: GlcNAc(b1-2)[GlcNAc(b1-4)]Man(a1-3)[GlcNAc(b1-2)[GlcNAc(b1-4)][GlcNAc(b1-6)]Man(a1-6)][GlcNAc(b1-4)]Man(b1-4)GlcNAc(b1-4)GlcNAc
How it was run: as §1

[25] = biological target: GlcNAc(b1-2)[GlcNAc(b1-4)]Man(a1-3)[GlcNAc(b1-2)[GlcNAc(b1-6)]Man(a1-6)]Man(b1-4)GlcNAc(b1-4)GlcNAc
How it was run: as §1

B1: ZG16p (Homo sapiens), O60844 (protein)
chain: ARSSSYSGEYGGGGGKRFSHSGNQLDGPITALRVRVNTYYIVGLQVRYGKVWSDYVGGRNGDLEEIFLHPGESVIQVSGKYKWFLKKLLFVTDKGRYLSFGKDSGTSFNAVPLHPNTVLRFISGRSGSLIDAIGLHWDVYPSSCSRC
glycan array binding signal (z-score) [1]: -0.485 | glycan array binding signal (z-score) [2]: -0.485 | glycan array binding signal (z-score) [3]: -0.485 | glycan array binding signal (z-score) [4]: -0.424 | glycan array binding signal (z-score) [5]: -0.485 | glycan array binding signal (z-score) [6]: -0.485 | glycan array binding signal (z-score) [7]: -0.369 | glycan array binding signal (z-score) [8]: -0.485 | glycan array binding signal (z-score) [9]: -0.415 | glycan array binding signal (z-score) [10]: -0.392 | glycan array binding signal (z-score) [11]: 0.026 | glycan array binding signal (z-score) [12]: -0.135 | glycan array binding signal (z-score) [13]: -0.101 | glycan array binding signal (z-score) [14]: -0.485 | glycan array binding signal (z-score) [15]: -0.289 | glycan array binding signal (z-score) [16]: 2.84 | glycan array binding signal (z-score) [17]: -0.073 | glycan array binding signal (z-score) [18]: -0.485 | glycan array binding signal (z-score) [19]: -0.485 | glycan array binding signal (z-score) [20]: -0.485 | glycan array binding signal (z-score) [21]: -0.417 | glycan array binding signal (z-score) [22]: -0.485 | glycan array binding signal (z-score) [23]: -0.485 | glycan array binding signal (z-score) [24]: -0.485 | glycan array binding signal (z-score) [25]: -0.485
